Experimental findings from PubChem BioAssay (NCI) are described below.

The test deals with MDA-MB-468 breast. In words: DTP human tumour cell line panel, 48 h.

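96-well plates; 48 h exposure; 5 concentrations. Endpoints by linear interpolation between flanking doses. Not reached: highest tested concentration assigned. The concentration for full growth arrest is given as TGI.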 Not every entry of the source has a single result; some have several. This is not the full list of results. The source may hold further records. For some assays here: A record mostly stands for its own series of concentrations, not given here; a value can be the end of its range. For some assays here: The values listed for one entry repeat one measurement in other runs, samples, wells, individuals or studies. Records carry a tag for their origin. Letters count within one entry. A value given as a limit tells only on which side of the number the result lay.

Take `O=[N+]([O-])c1ccc(O)c2ncccc12`: the TGI (commonly the concentration giving total growth inhibition) is > 100 µM [sample A, 1 test] and 5.91 µM [sample B, 1 test]. Take `COc1ccc(Cn2cc(Cn3c(=O)c(-c4nc5ccccc5[nH]4)cc4ccccc43)nn2)c(OC)c1OC`: the concentration for total growth inhibition (TGI) is 491 nM and > 100 µM.
